One series deals with pathogenic microbes. Here is the method:
Upon playing in the garden by digging in the ground non-disinfected hands of a child were contacted with sterile blood agar plates containing ethyl pyruvate (middle) ethyl lactate (right) and medium (left) for 30 seconds and incubated for 48h at 37°C.

In series [1] the test system is primary human skin fibroblasts.
The conditions of series [2]: in vivo; cited from earlier work.

Turning to `CCOC(=O)C(C)O` (centres unmarked) [ethyl lactate, reference compound], the “killing of microbes on blood agar plates” value in the series with pathogenic microbes is on record as “not effective”.
Regarding `CCOC(=O)C(C)=O` [ethyl pyruvate, Ethyl pyruvate], the “killing of microbes on blood agar plates” value in the series with pathogenic microbes is reported as “killing most pathogenic microbes”. In addition, in series [1], the “toxicity on primary human fibroblasts” value is “not toxic over the concentration range investigated” and the “vitality of primary human fibroblasts” value is “does not significantly influence vitality”. In addition, the “side effects in clinical studies” value in series [2] is “has not shown any side effects”. Also, in the series on LNCaP cells, the “proliferation of DHT-activated LNCaP cells” value is “inhibited” and the “proliferation of non-activated LNCaP cells” value is listed as “not inhibited”.
With `CC(=O)C(=O)O` [pyruvate, reference compound], the “proliferation of DHT-activated LNCaP cells” value in the series on LNCaP cells is reported as “no inhibitory effect”.

The values above are taken from EP4329743B1 (priority 2021, dated 2022).
